From article PMC6919601, “Identification of Plasmodium dipeptidyl aminopeptidase allosteric inhibitors by high throughput screening” (PLoS ONE, 2019) come the findings set out here.

Hit rate of the full screen: of about 110,000 compounds, about 230 (0.21%) showed an effect of 50% or more. The list shows a part of the results.
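Also: 30 min substrate incubation versus DMSO and 10 µM JCP410 controls.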

For the test, the target named is DPAP1 (Plasmodium falciparum, UniProt Q8IIJ9). The experiment in a line: primary screen, percent inhibition; read by cleavage of a fluorogenic dipeptide substrate; higher = more effect of the substance. On the set-up: species or system P. falciparum D10 trophozoite lysates; single well.
DPAP1, sequence (Q8IIJ9 whole entry, looked up): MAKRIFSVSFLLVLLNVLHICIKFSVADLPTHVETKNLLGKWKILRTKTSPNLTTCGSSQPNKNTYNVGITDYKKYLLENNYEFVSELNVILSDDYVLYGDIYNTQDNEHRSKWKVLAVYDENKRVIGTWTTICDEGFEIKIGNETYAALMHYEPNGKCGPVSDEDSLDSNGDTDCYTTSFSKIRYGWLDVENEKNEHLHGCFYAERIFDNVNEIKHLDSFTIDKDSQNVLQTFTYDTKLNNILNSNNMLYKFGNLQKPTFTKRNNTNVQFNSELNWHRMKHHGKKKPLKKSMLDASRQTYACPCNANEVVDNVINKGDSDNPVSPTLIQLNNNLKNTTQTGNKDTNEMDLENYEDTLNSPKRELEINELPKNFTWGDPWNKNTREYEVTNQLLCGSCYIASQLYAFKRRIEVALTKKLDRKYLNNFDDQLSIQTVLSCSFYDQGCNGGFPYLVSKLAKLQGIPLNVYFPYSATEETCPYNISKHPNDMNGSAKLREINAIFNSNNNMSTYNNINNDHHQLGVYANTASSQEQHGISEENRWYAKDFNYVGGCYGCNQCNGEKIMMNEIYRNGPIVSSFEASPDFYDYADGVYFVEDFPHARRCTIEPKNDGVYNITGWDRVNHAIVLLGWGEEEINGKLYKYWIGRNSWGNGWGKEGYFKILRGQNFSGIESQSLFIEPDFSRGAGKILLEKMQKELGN
As to `Cn1cc(NC(=O)N2CC=C(c3ccccc3)CC2)c2ccccc2c1=O`, the “% Inhibition @ 10 uM” value was found to be 1.76%.

With `O=C(NCCc1ccccc1)C(=O)Nc1cccc(Cl)c1`, the “% Inhibition @ 10 uM” value was 3.15%. For the compound `CCOc1ccccc1Cn1c(=O)oc2ccc(C)cc21`, the “% Inhibition @ 10 uM” value worked out at 0.446%. On to `CCCCNCCCOc1ccc([N+](=O)[O-])cc1`, for which the “% Inhibition @ 10 uM” value was -4.18%.

Take `COc1ccc2ccccc2c1C1C(C(C)=O)=C(C)N=c2s/c(=C\c3ccc(O)cc3)c(=O)n21` (stereo not shown): the “% Inhibition @ 10 uM” value was -3.98%.

`COc1cc2nc(SCC(=O)NCC3CCCO3)n3nc(-c4ccccc4)nc3c2cc1OC` (stereo not shown): the “% Inhibition @ 10 uM” value is on record as 1.23%. Next, `COc1cc2nc(N3CCN(C(=O)C4COc5ccccc5O4)CC3)nc(N)c2cc1OC` (stereo not shown): 1.62%; `CCC(C)NCc1c(C(=O)O)n(Cc2ccc(F)cc2Cl)c2ccccc12` (stereo not shown): -8.92%. As for `O=C(Cn1cnc2ccccc21)c1ccc(Cl)cc1`, the “% Inhibition @ 10 uM” value was -5.92%. Next, `CC1SC2(NC1=O)C1CC3CC2CC(O)(C3)C1` (stereo not shown): -4.23%; `CCC(NC(=O)NC12CC3CC(CC(C3)C1)C2)c1c(-n2cccc2)sc2c1CCN(C)C2` (stereo not shown): 2.47%; `COc1cccc(OC)c1C(=O)Nc1nccs1`: 2.92%. `Cc1cc(C)c(C)c(S(=O)(=O)NCC(=O)Nc2ccc(F)c(Cl)c2)c1C`: the “% Inhibition @ 10 uM” value was found to be 1.84%. `Cc1nc2nc(NC(=O)c3ccc(F)cc3)nn2c(O)c1Cl`: the “% Inhibition @ 10 uM” value was -1.31%. For the compound `CN(CC(=O)O)S(=O)(=O)c1cccc2cccnc12`, the “% Inhibition @ 10 uM” value is on record as 1.2%. As to `Cn1c(CSc2nc3ccccc3s2)nnc1SCC(=O)NCCO`, the “% Inhibition @ 10 uM” value was -3.1%. For `Clc1ccc2oc(-c3ccccc3)c/c(=N\CCN3CCOCC3)c2c1`, the “% Inhibition @ 10 uM” value is -2.98%.

`Cn1c(SCC(=O)Nc2nc3ccccc3s2)nnc1-c1c[nH]c2ccccc12`: the “% Inhibition @ 10 uM” value was determined as 0.44%. As for `COc1cc(C(=O)Nc2ncc(Cc3ccc(Cl)cc3)s2)cc(OC)c1OC`, the “% Inhibition @ 10 uM” value amounted to 2.94%. On to `CSc1ncc(Cl)c(C(=O)NCCc2ccc(S(N)(=O)=O)cc2)n1`, for which the “% Inhibition @ 10 uM” value worked out at 0.569%. Consider `O=C1CC(c2ccccc2)NC(=O)N1` (stereo not shown), for which the “% Inhibition @ 10 uM” value was -2.86%. With `CC(NC(=O)/C(CCCC#N)=N/O)c1ccccc1` (stereo not shown), the “% Inhibition @ 10 uM” value was found to be 0.00784%.

In the case of `COc1ccc(-c2noc(-c3cc4cc(OC)ccc4oc3=O)n2)cc1`, the “% Inhibition @ 10 uM” value is recorded as -7.74%. In the case of `O=C(CSc1nc2c(sc3ccccc32)c(=O)n1CCCN1CCOCC1)c1ccccc1`, the “% Inhibition @ 10 uM” value came to 5.74%.

On to `CN(CC(=O)NCc1ccco1)S(=O)(=O)c1ccc2[nH]c3c(c2c1)CCCC3`, for which the “% Inhibition @ 10 uM” value is reported as -3.6%. With `Cc1cccc(NC(=O)Cn2nc(C(F)(F)F)cc2C2CC2)c1C`, the “% Inhibition @ 10 uM” value was 1.59%. With `O=C(CCC(=O)NC1CCCCC1)Nc1nc(-c2cc3ccccc3oc2=O)cs1` the figure was 0.569%. For the compound `Cc1ccc(C(=O)c2ccc(O)cc2O)cc1`, the “% Inhibition @ 10 uM” value is reported as -3.83%.
